Paper PMC4199508
Changes are numbered by the printed parent chain. Numbers in names are those of the source. Results are given in words; binding and its absence hold for the method and conditions named. For part of these data: In cells and extracts the contact can be indirect. Some entries that bind do so weakly or less than the wild type. Where a sequence is shown, tags or fusion partners need not be part of it.

B1: Tpz1-myc (full length Tpz1, Tpz1-FL, expressed in fission yeast) (protein, UniProt O14246 1-508)
chain: MSNCLKHPWLENGLLNLIKNADVLPIRVFKCQPLQIFEYIRYEHPIRCKLSDTEFYIEAEFSSQSISDLNNFTEKRITSLRGGIVTLGNFLIHLIPSQSGIIPWIQVESFNFQGCEGAVFGNPKAITTSALFNALLQSPYLAALANEFNRSIKEGSSYQEASLSQQEKPNDNTSNSRDIKNNIQFHWKNMTSLSIEECIIPKGQQLILEKESEENTTHGIYLEERKMAQGLHNSVSETPEVKQEDNDEDLDAYSWSSSTDSAGEIPSLPTNRKILEKIAEKPPPFESPLEDDETPDQTNEHEANQVNVSQLPLNPRGSGISGRPVESTEQLNSSLTIERSQSIQSTDSKQRVETQSHRRSKIEIFDAQDELFDRSICTTIDDSTGKLLNAEETPIKTGDLHSTSASSVISCTPPAINFTSDICNEQIELEYKRKPIPDYDFMKGLETTLQELYVEHQSKKRRLELFQLTNNHQKNSEACEMCRLGLPHGSFFELLRDWKKIEEFRNKS
B2: Tpz1-[1–485]-L449R (expressed in fission yeast) (domain or fragment, UniProt O14246 1-485)
chain: MSNCLKHPWLENGLLNLIKNADVLPIRVFKCQPLQIFEYIRYEHPIRCKLSDTEFYIEAEFSSQSISDLNNFTEKRITSLRGGIVTLGNFLIHLIPSQSGIIPWIQVESFNFQGCEGAVFGNPKAITTSALFNALLQSPYLAALANEFNRSIKEGSSYQEASLSQQEKPNDNTSNSRDIKNNIQFHWKNMTSLSIEECIIPKGQQLILEKESEENTTHGIYLEERKMAQGLHNSVSETPEVKQEDNDEDLDAYSWSSSTDSAGEIPSLPTNRKILEKIAEKPPPFESPLEDDETPDQTNEHEANQVNVSQLPLNPRGSGISGRPVESTEQLNSSLTIERSQSIQSTDSKQRVETQSHRRSKIEIFDAQDELFDRSICTTIDDSTGKLLNAEETPIKTGDLHSTSASSVISCTPPAINFTSDICNEQIELEYKRKPIPDYDFMKGLETTRQELYVEHQSKKRRLELFQLTNNHQKNSEACEMCRLG
B3: Tpz1-L449R,W498R,I501R (expressed in fission yeast) (protein, UniProt O14246 1-508)
chain: B1 chain with L449R, W498R, I501R
B4: Tpz1-FL W498A,I501A (yeast two-hybrid construct) (protein, UniProt O14246 1-508)
chain: B1 chain with W498A, I501A
B5: Tpz1-FL (full length Tpz1, yeast two-hybrid construct) (protein, UniProt O14246 1-508)
chain: B1 chain
B6: Tpz1-FL Y439R,L445R (yeast two-hybrid construct) (protein, UniProt O14246 1-508)
chain: B1 chain with Y439R, L445R
B7: Tpz1-FL L449R (yeast two-hybrid construct) (protein, UniProt O14246 1-508)
chain: B1 chain with L449R

molecular target: T1, Pot1 of fission yeast whole cell extract (held on telomeric G-oligo beads) (Schizosaccharomyces pombe (endogenous in fission yeast extract)) (UniProt O13988); assay: pull-down; biotinylated telomeric G-tail oligo on streptavidin magnetic beads incubated with 2 mg fission yeast whole cell extract, 2 h 4°C, 150 mM NaCl lysis buffer; Pot1-dependent recovery of Tpz1 seen by western blot; wild type also in ccq1Δ poz1Δ cells
T1 sequence: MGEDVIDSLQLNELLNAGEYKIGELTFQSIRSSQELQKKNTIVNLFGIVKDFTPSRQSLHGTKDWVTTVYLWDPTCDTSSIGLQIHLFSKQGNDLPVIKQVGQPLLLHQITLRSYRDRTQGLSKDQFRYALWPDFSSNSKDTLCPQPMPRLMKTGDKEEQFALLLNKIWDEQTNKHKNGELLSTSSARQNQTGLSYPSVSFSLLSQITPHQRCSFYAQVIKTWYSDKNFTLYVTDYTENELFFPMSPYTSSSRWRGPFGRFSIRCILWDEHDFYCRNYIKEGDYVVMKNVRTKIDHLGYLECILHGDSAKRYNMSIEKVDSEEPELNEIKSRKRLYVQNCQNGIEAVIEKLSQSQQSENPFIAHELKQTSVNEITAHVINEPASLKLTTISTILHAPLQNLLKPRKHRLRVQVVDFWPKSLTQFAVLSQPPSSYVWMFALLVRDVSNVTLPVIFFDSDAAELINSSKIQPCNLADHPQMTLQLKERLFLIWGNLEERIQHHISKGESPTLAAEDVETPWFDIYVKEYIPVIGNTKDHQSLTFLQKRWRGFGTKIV

| Binder | binding |
| --- | --- |
| B1 | binds |
| B2 | binds |
| B3 | binds |

molecular target: T2, Poz1 (yeast two-hybrid construct) (Schizosaccharomyces pombe) (UniProt O13852); assay: two-hybrid; S. cerevisiae Y2HGold with GAL4-DBD plasmids mated with Y187 with GAL4-AD plasmids; positive interaction by growth on -His -Ade plates (Figures S1B and S2B also -His +5 mM 3AT)
T2 sequence: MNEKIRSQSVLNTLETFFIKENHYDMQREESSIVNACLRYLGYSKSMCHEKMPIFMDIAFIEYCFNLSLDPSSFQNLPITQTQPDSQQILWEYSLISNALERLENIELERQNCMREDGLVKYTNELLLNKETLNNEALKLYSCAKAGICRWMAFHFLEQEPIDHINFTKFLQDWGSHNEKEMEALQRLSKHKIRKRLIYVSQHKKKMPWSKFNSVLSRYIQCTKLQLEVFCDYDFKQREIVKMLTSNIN

| Binder | binding |
| --- | --- |
| B4 | binds |
| B5 | binds |
| LPHGSFFELLRDWKKIEEFRNKS (domain or fragment, UniProt O14246 486-508) [Tpz1-[486–508] (minimum Poz1 interaction domain construct, yeast two-hybrid)] | binds |
| B6 | binds |
| B7 | binds |
| LPHGSFFELLRDRKKREEFRNKS (domain or fragment, UniProt O14246 486-508) [Tpz1-[486–508] W498R,I501R (yeast two-hybrid construct)] | no binding |

molecular target: T3, Pot1 (yeast two-hybrid construct) (Schizosaccharomyces pombe) (UniProt O13988); assay: as above
T3 sequence: T1 sequence

| Binder | binding |
| --- | --- |
| B5 | binds |
| B6 | binds |
| B7 | binds |
